Out of some 360,000 compounds screened, about 6,000 (1.7%) were called active. The shares of active, inactive and inconclusive entries below differ from those in the screen. Calls follow the shape of the dose curve; as a rule, active = well fitted cell-killing curve with a large enough effect; inconclusive = small, poorly fitted or top-dose-only effect, or effect the other way; inactive = flat fitted curve, though single readings scatter. Potencies of inconclusive entries are left out as doubtful fits.
assay: qHTS for induction of synthetic lethality in tumor cells producing 2HG: qHTS for the HT-1080-NT fibrosarcoma cell line; details: HT-1080-NT fibrosarcoma viability, CellTiter-Glo ATP luminescence, 48 h; activity, negative = less viability: at 46.1 µM (top of the series) unless noted;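 also: NT is the 2HG producing partner of a matched IDH1 knockdown line; nearly all actives have a fitted effect of over 55% in size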;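 as to activity, negative = less viability: 0% = DMSO-treated cells and -100% = media-only wells without cells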
In short: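 Viability of the 2HG-overproducing fibrosarcoma line after 48 hours of compound exposure at 37 degrees C was determined by luminescence with CellTiter-Glo, and concentration-effect curves were then fitted and categorized.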
Potency is read from the fitted curve at half-maximal effect; tags tell the direction and shape of the fitted curve.

Structure (SMILES) | Potency | activity, negative = less viability
Cc1ccc(C)c(Sc2ccc(NC(=O)CCl)cc2)c1 | inactive | 
CCN(Cc1nc2ccccc2c(=O)[nH]1)Cc1nc2ccsc2c(=O)[nH]1 | inconclusive [cytotoxic, single point] | 
CCCCN(C=O)c1c(CC)nc2ccc(C(=O)N3CCN(C(=O)c4ccco4)CC3)cn12 | inconclusive [rising, single point] | 
CCCNC(=S)Nc1c(C)n(C)n(-c2ccccc2)c1=O | inactive | 
COc1ccc(-c2ccc3[nH]c4c(c3c2)CCN2C(=O)[C@@H]([C@H](C)O)[C@@H](N(C)C(=O)Nc3ccc(F)cc3)C[C@@H]42)cc1 | inconclusive [cytotoxic, single point] | 
O=C(N/N=C\c1ccc(-c2ccc([N+](=O)[O-])cc2)o1)C1COc2ccccc2O1 (stereo not given) | inactive | 
COC1=CC(=O)CC(C)C12Oc1c(Cl)c(OC)cc(OC)c1C2=O (stereo not given) | inconclusive [cytotoxic, single point] | 
CCOc1ccc(NC(=O)c2cccs2)c([N+](=O)[O-])c1 | inconclusive [cytotoxic, single point] | 
CC(C)(C)c1ccc(C(=O)Nc2ccc(S(=O)(=O)Nc3cnc4ccccc4n3)cc2)cc1 | inconclusive [cytotoxic, partial curve] | 
Cc1cccc(C)c1NC(=O)CNC(=O)CCCN1C(=O)c2cccc3cccc(c23)C1=O |  | inconclusive: -5.34%
COc1ccc(CNC(=O)c2cccc3c(-c4cnn(C)c4)coc23)cc1OC | active: 23.1 µM | 
CCN(CC(=O)NCc1ccc(Cl)cc1)C(=O)c1ccc(S(=O)(=O)N(C)C)cc1 | inactive | 
COc1ccc(Cl)cc1C(Nc1cccnc1)c1ccc2cccnc2c1O (stereo not given) | inconclusive [cytotoxic, full curve] | 
O=C(NCCC1=CCCCC1)c1ccc(Cl)c(S(=O)(=O)Nc2ccccc2)c1 | inactive | 
Cc1cccc(NC2=NC(C)(C)N=C(N)N2)c1 | active: 0.326 µM | 
Cc1occc1C(=O)Nc1cnn(CCCC(=O)O)c1 |  | inconclusive: 7.54%
O=C1C=C(c2c(O)ccc3ccccc23)c2ccccc2C1=O | active: 7.31 µM | 
O=C(CCSc1ccc(F)cc1)Nc1ccc(-n2cnnn2)cc1 | inactive | 
COc1cc(C2c3cc4c(cc3OC(NCCc3ccccc3)C2C)OCO4)cc(OC)c1OC (stereo not given) | active: 1.03 µM | 
Cc1ccc2cc(CN(Cc3ccccc3)Cc3nnnn3C3CCCC3)c(=O)[nH]c2c1 | inconclusive [cytotoxic, single point] | 
NC(=S)NN=Cc1nccc2ccccc12 | active: 4.11 µM | 
COc1ccc(Nc2nnc(-c3ccc(C)cc3)c3ccccc23)cc1C(=O)N1CCCCC1 | inconclusive [cytotoxic, single point] | 
Cc1cc(C(=O)N/N=C/c2ccc(Cl)c([N+](=O)[O-])c2)c(C)n1-c1ccc(F)cc1 | inconclusive [cytotoxic, partial curve] | 

Structure (SMILES) | Potency | activity, negative = less viability
N#C/C(=C\c1cccs1)C(=O)Nc1ccccn1 | inconclusive [rising, single point] | 
CC(C)(C)c1ccc(Cn2nnc3c(=O)[nH]c(C4CCN(C(=O)Cc5cccs5)CC4)nc32)cc1 | inconclusive [cytotoxic, single point] | 
O=C1S/C(=C\C=C\c2ccco2)C(=O)N1c1ccccc1 | inconclusive [cytotoxic, single point] | 
COc1cccc(CNc2ncc(-c3ccccc3)n2C)c1 | inconclusive [cytotoxic, single point] | 
Cc1[nH]n(-c2cccc(Cl)c2)c(=O)c1-c1ccc(Cl)cc1 | inconclusive [cytotoxic, single point] | 
Cc1ccc(C)c2nc3sc(C(=O)O)cc3cc12 | inconclusive [cytotoxic, partial curve] | 
Cc1ccc(C(C(=O)NC2CCCCC2)N(Cc2ccco2)C(=O)Cc2c[nH]c3ccccc23)o1 (stereo not given) | inactive | 
O=C1C=C(Nc2cccc3cccnc23)c2ccccc2C1=O | inconclusive [cytotoxic, partial curve, poor fit] | 
COc1cc(C(=O)OCC(C)=O)ccc1OCc1c(C)noc1C | inconclusive [cytotoxic, single point] | 
CCN(CC)C(=O)c1ccc(/C=C/c2c[nH]c3ccccc23)[n+](C)c1 | inactive | 
CCOc1ccc(N/C=C/C(=O)c2ccccc2)c([N+](=O)[O-])c1 | inconclusive [cytotoxic, single point] | 
CCOC(=O)c1ccc(-c2ccc(/C=N/NC(=O)CN(c3ccccc3Br)S(C)(=O)=O)o2)cc1 | inconclusive [cytotoxic, single point] | 
CCCc1nc2c(C)cc(Br)cn2c1Cc1ccccc1C(F)(F)F | inconclusive [cytotoxic, single point] | 
N#C/C(=C\c1cccnc1)c1ccc([N+](=O)[O-])cc1 | inactive | 
CN(C)c1ccc(-c2ccnc3c2CC(C)(C(=O)Nc2ccc(Cl)c(C(F)(F)F)c2)O3)cc1 (stereo not given) | inconclusive [cytotoxic, single point] | 
C/C(=C/c1ccccc1)C(=O)N1CCN(c2ccccc2F)CC1 | inactive | 
COc1ccc(-c2[nH]ncc2-c2ccc(Cl)cc2)c(O)c1 | inconclusive [cytotoxic, single point] | 
Cc1cc(NS(=O)(=O)c2ccc(NC(=O)CCCOc3cccc(C)c3C)cc2)no1 | inactive | 
CCOc1ccc(-c2cc(C(=O)Nc3ccc4c(c3)OCCO4)c3ccccc3n2)cc1 | inconclusive [cytotoxic, single point] | 
COc1ccccc1S(=O)(=O)N(C)C[C@H]1OCc2cnnn2CCCC(=O)N([C@H](C)CO)C[C@H]1C | inactive | 
CC1(C)Cc2c(cnn2-c2cccc(F)c2)C(NC(=O)c2ccc(=O)[nH]n2)C1 (stereo not given) | inactive | 
COc1ccccc1N1CCN(C(=O)CSc2ncnc3scc(-c4ccccc4)c23)CC1 | inactive | 
